# Source: the supplement of paper PMC11417369
# This is one part of the list.
# Test system: PfAP2-HC AP2 domain (GST-tagged)
# Experiment: gcPBM binding intensity (ln(normalized median fluorescence intensity)); higher = stronger DNA binding
# Outline: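 Each value is the highest Masliner-normalised natural-log median intensity across replicate spots of either orientation of a probe. The probes were primer-extended double-stranded 36-bp intergenic genomic sequences on an Agilent 4 × 180k array, alongside negative controls, exposed for 1 h to GST-tagged P. falciparum DNA-binding domains expressed in E. coli. Bound protein was picked up with Alexa488 anti-GST antibody and scanned at 488 nm.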
row,Sequence,gcPBM binding intensity (ln)
1,GTAAGAACACTTTTGTGGTTACTTAAAAGTGTATAT [GTGCAC_negctrl_site422],9.57
2,ATTTCAACAAATATAACACACAATGGATAAGAATAA [CACACA_site1974],9.82
3,TGCTTATATGTTGTTACACACTAAAATAGTTAGATA [CACACA_site1277],9.67
4,AATACAGTTAGAGAAAGTACACAACTAATATACATA [XGTACX_site8814],9.78
5,ACATATATTTCAAAGTGTACGCACAATTTTTTTTAC [XGTACX_site6166],9.74
6,AACATATATATAATATGTACATAATATATATAAATG [XGTACX_site1161],9.75
7,TATTTTTTAAAAAAATGTCATAAAATTTCTTTTTTC [XGTACX_negctrl_site271],9.28
8,ATATACAAAGGATTAACACACATATTATTATATATA [CACACA_site1880],9.83
9,AGAAAAAAATAATGTACACACACATATATGTTTATA [CACACA_site7946],9.95
10,GTAATTTTATATGGTTGTACATATATATATATATAT [XGTACX_site6659],9.84
11,ATATATATATATATATATATTTATATGTGAAAACCC [CACACA_negctrl_site845],9.93
12,TTATACCTGATTTAGGTGCTATAAATTTGTGTTTTT,9.74
13,ATATATATATATATGTGTACTTATATATTTAAAAAA [XGTACX_site1761],9.59
14,CGCATAAAGACAAGAACACACATATATATTGTAGTA [CACACA_site5938],10
15,CAACAACAAAAAAAAAAATAATAATAATAAAAAATA [TGCATGCA_negctrl_site271],9.5
16,TTCCTATTTCCTATGTGTACTTATAAATAAGTGTCT [XGTACX_site3725],9.73
17,GAAATTATAAATTGGACACACACATAAAAAATATGT [CACACA_site7957],10.1
18,TCCGCATGTACATGGGTGCACATAACACCCATTTAA [GTGCAC_site9881],9.45
19,TAAATGTCTGTTAATGCACACGATATGTCTATATAT [CACACA_site2352],9.88
20,CTTTCTATATAAAATCGTACATATATAATATTATAT [XGTACX_site5807],9.67
21,TATATTAAGAAACACACACACATATATATATATATA [CACACA_site1609],10
22,CTAACACTAATTTTTTGTACACAATATGTAAATAAA [XGTACX_site6424],9.57

row,Sequence,gcPBM binding intensity (ln)
1,ATTTTTACATAGGAAGCATGCATATTTTAAAAATAA [TGCATGCA_site1046],9.51
2,TTATTTCTGAATATTTTTTTTTTTTCTTCTTTTTTA [CACACA_negctrl_site815],9.45
3,CATGTGTTCTATATTTATGTCTAACTTTTTAATTAA [CACACA_negctrl_site904],9.72
4,TAATTTTTTAAATTTAAACACACATTTTGTATATGT [CACACA_site8479],9.99
5,TGATACGTATTTATTTCACACACGTTAAAAAAATAA [CACACA_site3914],9.65
6,TATATATATATATATTGTACGAACCTTTTTTTTTTT [XGTACX_site4169],9.37
7,TATAAATTTTTATTTACATGCAGTTATTATTTCCAT [TGCATGCA_site41],9.8
8,TATTAAAAGGTTAAAGCATGCATACATATATATGTT [TGCATGCA_site865],9.61
9,TTTTTGTTACCTATTGTGCACTTCATATAAATTAAA,9.74
10,AATAATAAATAAAAATGTACACATACATTTCTATCC [XGTACX_site7057],9.68
11,ATATATATATATATATGTACATATTTATATTGTAAA [XGTACX_site8878],9.71
12,TAATGTAATACATATTGTACACATACATATATATTT [XGTACX_site7531],9.57
13,ATATATAATCATCACACATGCAGCCCTGATGAAAAA [TGCATGCA_site687],9.76
14,GGGTATACCAATATAACACACATATATCTATAATAT [CACACA_site6348],9.85
15,AGAAAGTAAAGCTGTTGTACTATTATATATATTTTA [XGTACX_site8090],9.67
16,GTAATACCCAAACACACACACATACCCATATATATA [CACACA_site5510],10.7
17,TATAATATGTATATCTGTACATATTTTAAATCTAAT [XGTACX_site2426],9.5
18,AAGTACAATTCATGTATGCACTTTATTATATTTTAT,9.74
19,AAGATAAAATAATAAAGTACACATATAAATTGAAAA [XGTACX_site2113],9.73
20,TTTCTTTTTAAATAATAATGTATAATAAAAAGTTCA [TGCATGCA_negctrl_site195],9.15
21,TTTGTTTGATATATGTGTACATATATATATTATGCT [XGTACX_site3522],9.78
22,TATTATAGTATATATTGTACATATATATATTTTTTA [XGTACX_site8831],9.69

row,Sequence,gcPBM binding intensity (ln)
1,ATAATAATATATAGTACACACAAAAATGGAAGTAAA [CACACA_site3318],10.2
2,TGTTATGAGAACAGCACACAAGCTACATCATATATA [CACACA_site870],9.74
3,TATATATAAGATTGATGTACGATTTTGGTGTCTTAT [XGTACX_site2611],9.67
4,AACATATGATTAAACTGTACAAGAAAAATATAACAT [XGTACX_site4477],9.84
5,GAGAGGATCATCAATTCACACACATAAAAATGAAGT [CACACA_site9010],9.86
6,TAAAAATATTATAATGCATGCAAAATATTGTTATAA [TGCATGCA_site244],9.63
7,ATAGTTTTTCCAATTCAAAAAAAAAAAAAAAAAAAA [CACACA_negctrl_site969],8.91
8,AAAGTATAAATAAATACACACATATTTATTTATATA [CACACA_site7375],9.81
9,TAATTTATCCTATAATGTACTTATAAAATATATCAT [XGTACX_site1460],9.57
10,ATGTACATAAACCGCACACATATAAAAAAATAAATA [CACACA_site5571],10.2
11,ATTCAGAGTATATAAAAATTAATATATACATAATAT [CACACA_negctrl_site1782],9.62
12,AGTCCATTTTATTATTGTACATATTAATTTATATCA [XGTACX_site672],9.86
13,TAGATATTTTTGAAAAGTACAAATTTTTAAAAATTA [XGTACX_site4420],9.36
14,TTATATAATGACAAAAAAAAAAAAAAAAAAAAAAAA [CACACA_negctrl_site1467],8.73
15,GTATGATTACAAGAAAGTAGTCCACTTTAACAACAA [CACACA_negctrl_site1304],9.73
16,ATATATATATAAATATGTACATATATACATATATAC [XGTACX_site2374],9.7
17,AATATTTTGTTATTTATTTAATCTAATATTACTATC [CACACA_negctrl_site4],9.69
18,AAAAAAAAAAAATACACACAAACACAAATTAAATAA [CACACA_site3809],10.3
19,ATTATAGAATATTGAAGTACAAAATTTAAAATAAGT [XGTACX_site1468],9.73
20,TAGGAAAATTACAAAAGTACTTGGCACATAATAATG [XGTACX_site6005],9.62
21,TATATATATATATATGCACACATTTATACAATTTTA [CACACA_site2986],9.51
22,ATCATATCCACCAAATGAATAATATAAAATAATATA [XGTACX_negctrl_site193],9.53

row,Sequence,gcPBM binding intensity (ln)
1,AAATAACATAATAAGGGTACATTAATTTCGATAATG [XGTACX_site835],9.83
2,TATTTTGTCATAGAACGTACTTATAAATATTTTTTT [XGTACX_site8424],9.5
3,ATAGAAGCTGTTGACGAAGAAAAAAAAAAAAAAAAA [CACACA_negctrl_site110],9.05
4,AGAAAAAAAAAAAAAAAACACACGGTACATCCAAAG [CACACA_site124],9.88
5,ATCAAATTATAATCATGTACAAATAAAAAAAAAAAA [XGTACX_site313],9.61
6,AAATATCTACAAATATGTACATATTTTTTTTGGCTT [XGTACX_site6301],9.53
7,TTTGGTAAGCGTGTCGCATGTAGAACAAGTCTACAT [TGCATGCA_site577],9.48
8,AATAGGTGCCTTTTTTCACACACATGTCAACTAAAT [CACACA_site8846],9.98
9,ATGAAATTATTATATAAACACACATTTATTTTATTT [CACACA_site8597],9.74
10,ATTCTTTTTTTTTTCTTATATTCTAATCACCACCTT [XGTACX_negctrl_site179],9.5
11,TAAAATTAAATGAAATCATTATTCATTTTTATTTTA [CACACA_negctrl_site1281],9.36
12,CATATAAATAAACACACACACACATATATATATATA [CACACA_site5309],10.5
13,TATATATATATTTTTGGTACAGATATTTTCTTCTCT [XGTACX_site4432],9.71
14,TTACAACCATAAAATGCATGTAAATGACAAAAAAAA [TGCATGCA_site944],9.73
15,AATATATATATATATTGTACACACATTTATGCATAT [XGTACX_site6856],10.1
16,AGGAACATTTACGCCCCACACACCTACCAACAAAAA [CACACA_site3827],10.2
17,ATTAAAATGGAGTATTAATATGATATATATATATAT [GTGCAC_negctrl_site509],9.81
18,TAAATACAGACATACACACATACACCCACATATATA [CACACA_site547],10.3
19,GTTAATTTAATTATATGTACGAAAAAATACGTTATA [XGTACX_site1306],9.48
20,TTTTTATTTTTTTATTTCTTATCAAATAAAATATAT [XGTACX_negctrl_site537],9.53
21,ACATAATATACTATTGTGCACATATATATATATATA [GTGCAC_site9761],9.82
22,ACCCTTCAATTTAATTGTACAAGAAAAAAAAAAAAA [XGTACX_site2927],9.29
